Reference: the supplement of paper PMC9174493
Some of the results follow. Single values of this set are uncertain. Values with irradiation are relative to irradiated vehicle.

How the values were obtained:
A549-Dual [1] = assay: NF-kB reporter (SEAP) activity, viability-corrected, relative to vehicle (fold change vs vehicle); higher = more activation of STING-IRF / NF-kB immune response reporter
A549-Dual [2] = assay: ISRE reporter (Lucia luciferase) activity, viability-corrected, relative to vehicle (fold change vs vehicle); higher = more activation of STING-IRF / NF-kB immune response reporter
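Wherever NF-kB reporter (SEAP) activity, viability-corrected, relative to vehicle is given: viability correction based on the alamar blue assay, with concentrations leaving 10% survival or less dropped.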

CC12CCC3C(CCC4=C(O)C(=O)CCC43C)C1CCC2=O (stereo not given) [Formestane]
NF-kB reporter (A549-Dual [1]; 0.1 µM, irradiation: 8 Gy/4 fr): 0.979 | NF-kB reporter (A549-Dual [1]; 0.1 µM, irradiation: none): 1.04 | NF-kB reporter (A549-Dual [1]; 0.3 µM, irradiation: 8 Gy/4 fr): 1.1 | NF-kB reporter (A549-Dual [1]; 0.3 µM, irradiation: none): 1.12 | NF-kB reporter (A549-Dual [1]; 1 µM, irradiation: 8 Gy/4 fr): 1.07 | NF-kB reporter (A549-Dual [1]; 1 µM, irradiation: none): 1.48 | NF-kB reporter (A549-Dual [1]; 3 µM, irradiation: 8 Gy/4 fr): 0.995 | NF-kB reporter (A549-Dual [1]; 3 µM, irradiation: none): 1.1 | NF-kB reporter (A549-Dual [1]; 10 µM, irradiation: 8 Gy/4 fr): 1 | NF-kB reporter (A549-Dual [1]; 10 µM, irradiation: none): 1.14 | ISRE reporter (A549-Dual [2]; 0.1 µM, irradiation: 8 Gy/4 fr): 0.972 | ISRE reporter (A549-Dual [2]; 0.1 µM, irradiation: none): 0.895 | ISRE reporter (A549-Dual [2]; 0.3 µM, irradiation: 8 Gy/4 fr): 1.05 | ISRE reporter (A549-Dual [2]; 0.3 µM, irradiation: none): 0.88 | ISRE reporter (A549-Dual [2]; 1 µM, irradiation: 8 Gy/4 fr): 1.07 | ISRE reporter (A549-Dual [2]; 1 µM, irradiation: none): 0.979 | ISRE reporter (A549-Dual [2]; 3 µM, irradiation: 8 Gy/4 fr): 0.947 | ISRE reporter (A549-Dual [2]; 3 µM, irradiation: none): 0.76 | ISRE reporter (A549-Dual [2]; 10 µM, irradiation: 8 Gy/4 fr): 0.931 | ISRE reporter (A549-Dual [2]; 10 µM, irradiation: none): 0.88

CC(C)C12OC1C1OC13C1(C)CCC4=C(COC4=O)C1CC1OC13C2O (stereo not given) [Triptolide (PG490)]
NF-kB reporter (A549-Dual [1]; 0.1 µM, irradiation: 8 Gy/4 fr): 1.41 | NF-kB reporter (A549-Dual [1]; 0.1 µM, irradiation: none): 2.12 | NF-kB reporter (A549-Dual [1]; 0.3 µM, irradiation: 8 Gy/4 fr): 0.814 | NF-kB reporter (A549-Dual [1]; 0.3 µM, irradiation: none): 3.06 | NF-kB reporter (A549-Dual [1]; 1 µM, irradiation: 8 Gy/4 fr): 2.32 | NF-kB reporter (A549-Dual [1]; 1 µM, irradiation: none): 1.99 | NF-kB reporter (A549-Dual [1]; 3 µM, irradiation: 8 Gy/4 fr): 3.05 | NF-kB reporter (A549-Dual [1]; 3 µM, irradiation: none): 1.64 | NF-kB reporter (A549-Dual [1]; 10 µM, irradiation: 8 Gy/4 fr): 1.71 | NF-kB reporter (A549-Dual [1]; 10 µM, irradiation: none): 3.07 | ISRE reporter (A549-Dual [2]; 0.1 µM, irradiation: 8 Gy/4 fr): 0.1 | ISRE reporter (A549-Dual [2]; 0.1 µM, irradiation: none): 2.34 | ISRE reporter (A549-Dual [2]; 0.3 µM, irradiation: 8 Gy/4 fr): 0.314 | ISRE reporter (A549-Dual [2]; 0.3 µM, irradiation: none): 0.588 | ISRE reporter (A549-Dual [2]; 1 µM, irradiation: 8 Gy/4 fr): 0.103 | ISRE reporter (A549-Dual [2]; 1 µM, irradiation: none): 0.408 | ISRE reporter (A549-Dual [2]; 3 µM, irradiation: 8 Gy/4 fr): 0.0906 | ISRE reporter (A549-Dual [2]; 3 µM, irradiation: none): 0.448 | ISRE reporter (A549-Dual [2]; 10 µM, irradiation: 8 Gy/4 fr): 0.102 | ISRE reporter (A549-Dual [2]; 10 µM, irradiation: none): 0.382

c1ccc2c(c1)Sc1ccccc1N2CC1CN2CCC1CC2 (stereo not given) [Mequitazine]
NF-kB reporter (A549-Dual [1]; 0.1 µM, irradiation: 8 Gy/4 fr): 1.2 | NF-kB reporter (A549-Dual [1]; 0.1 µM, irradiation: none): 1.57 | NF-kB reporter (A549-Dual [1]; 0.3 µM, irradiation: 8 Gy/4 fr): 1.27 | NF-kB reporter (A549-Dual [1]; 0.3 µM, irradiation: none): 1.4 | NF-kB reporter (A549-Dual [1]; 1 µM, irradiation: 8 Gy/4 fr): 1.34 | NF-kB reporter (A549-Dual [1]; 1 µM, irradiation: none): 1.11 | NF-kB reporter (A549-Dual [1]; 3 µM, irradiation: 8 Gy/4 fr): 1.66 | NF-kB reporter (A549-Dual [1]; 3 µM, irradiation: none): 1.15 | NF-kB reporter (A549-Dual [1]; 10 µM, irradiation: 8 Gy/4 fr): 0.987 | NF-kB reporter (A549-Dual [1]; 10 µM, irradiation: none): 0.446 | ISRE reporter (A549-Dual [2]; 0.1 µM, irradiation: 8 Gy/4 fr): 1.14 | ISRE reporter (A549-Dual [2]; 0.1 µM, irradiation: none): 1.47 | ISRE reporter (A549-Dual [2]; 0.3 µM, irradiation: 8 Gy/4 fr): 1.08 | ISRE reporter (A549-Dual [2]; 0.3 µM, irradiation: none): 1.36 | ISRE reporter (A549-Dual [2]; 1 µM, irradiation: 8 Gy/4 fr): 1.3 | ISRE reporter (A549-Dual [2]; 1 µM, irradiation: none): 0.988 | ISRE reporter (A549-Dual [2]; 3 µM, irradiation: 8 Gy/4 fr): 1.11 | ISRE reporter (A549-Dual [2]; 3 µM, irradiation: none): 1.7 | ISRE reporter (A549-Dual [2]; 10 µM, irradiation: 8 Gy/4 fr): 1.51 | ISRE reporter (A549-Dual [2]; 10 µM, irradiation: none): 2.31

O=P1(NCCCl)OCCCN1CCCl (stereo not given) [Ifosfamide]
NF-kB reporter (A549-Dual [1]; 0.1 µM, irradiation: 8 Gy/4 fr): 0.864 | NF-kB reporter (A549-Dual [1]; 0.1 µM, irradiation: none): 1.05 | NF-kB reporter (A549-Dual [1]; 0.3 µM, irradiation: 8 Gy/4 fr): 0.9 | NF-kB reporter (A549-Dual [1]; 0.3 µM, irradiation: none): 1.1 | NF-kB reporter (A549-Dual [1]; 1 µM, irradiation: 8 Gy/4 fr): 0.744 | NF-kB reporter (A549-Dual [1]; 1 µM, irradiation: none): 0.789 | NF-kB reporter (A549-Dual [1]; 3 µM, irradiation: 8 Gy/4 fr): 0.862 | NF-kB reporter (A549-Dual [1]; 3 µM, irradiation: none): 0.78 | NF-kB reporter (A549-Dual [1]; 10 µM, irradiation: 8 Gy/4 fr): 0.855 | NF-kB reporter (A549-Dual [1]; 10 µM, irradiation: none): 0.939 | ISRE reporter (A549-Dual [2]; 0.1 µM, irradiation: 8 Gy/4 fr): 0.927 | ISRE reporter (A549-Dual [2]; 0.1 µM, irradiation: none): 0.933 | ISRE reporter (A549-Dual [2]; 0.3 µM, irradiation: 8 Gy/4 fr): 1.03 | ISRE reporter (A549-Dual [2]; 0.3 µM, irradiation: none): 1.05 | ISRE reporter (A549-Dual [2]; 1 µM, irradiation: 8 Gy/4 fr): 0.745 | ISRE reporter (A549-Dual [2]; 1 µM, irradiation: none): 0.794 | ISRE reporter (A549-Dual [2]; 3 µM, irradiation: 8 Gy/4 fr): 0.906 | ISRE reporter (A549-Dual [2]; 3 µM, irradiation: none): 0.688 | ISRE reporter (A549-Dual [2]; 10 µM, irradiation: 8 Gy/4 fr): 0.863 | ISRE reporter (A549-Dual [2]; 10 µM, irradiation: none): 0.836

COc1cc2c(cc1O)CC1c3c(cc(O)c(OC)c3-2)CCN1C (stereo not given) [Boldine]
NF-kB reporter (A549-Dual [1]; 0.1 µM, irradiation: 8 Gy/4 fr): 1.04 | NF-kB reporter (A549-Dual [1]; 0.1 µM, irradiation: none): 1.27 | NF-kB reporter (A549-Dual [1]; 0.3 µM, irradiation: 8 Gy/4 fr): 1.17 | NF-kB reporter (A549-Dual [1]; 0.3 µM, irradiation: none): 1.01 | NF-kB reporter (A549-Dual [1]; 1 µM, irradiation: 8 Gy/4 fr): 1.26 | NF-kB reporter (A549-Dual [1]; 1 µM, irradiation: none): 0.965 | NF-kB reporter (A549-Dual [1]; 3 µM, irradiation: 8 Gy/4 fr): 1.24 | NF-kB reporter (A549-Dual [1]; 3 µM, irradiation: none): 0.918 | NF-kB reporter (A549-Dual [1]; 10 µM, irradiation: 8 Gy/4 fr): 0.975 | NF-kB reporter (A549-Dual [1]; 10 µM, irradiation: none): 1.17 | ISRE reporter (A549-Dual [2]; 0.1 µM, irradiation: 8 Gy/4 fr): 1.07 | ISRE reporter (A549-Dual [2]; 0.1 µM, irradiation: none): 0.931 | ISRE reporter (A549-Dual [2]; 0.3 µM, irradiation: 8 Gy/4 fr): 1.03 | ISRE reporter (A549-Dual [2]; 0.3 µM, irradiation: none): 0.705 | ISRE reporter (A549-Dual [2]; 1 µM, irradiation: 8 Gy/4 fr): 0.862 | ISRE reporter (A549-Dual [2]; 1 µM, irradiation: none): 0.785 | ISRE reporter (A549-Dual [2]; 3 µM, irradiation: 8 Gy/4 fr): 0.797 | ISRE reporter (A549-Dual [2]; 3 µM, irradiation: none): 0.967 | ISRE reporter (A549-Dual [2]; 10 µM, irradiation: 8 Gy/4 fr): 1.01 | ISRE reporter (A549-Dual [2]; 10 µM, irradiation: none): 0.856
